Drawing on the supplement of paper PMC9174493, this text covers NF-kB reporter and ISRE reporter for five compounds.

This is one part of the list. Single values of this set are uncertain. Values with irradiation are relative to irradiated vehicle.

The test system of assay [1] is A549-Dual. Description: NF-kB reporter (SEAP) activity, viability-corrected, relative to vehicle (fold change vs vehicle); higher = more activation of STING-IRF / NF-kB immune response reporter.
Assay [2] deals with A549-Dual. Description: ISRE reporter (Lucia luciferase) activity, viability-corrected, relative to vehicle (fold change vs vehicle); higher = more activation of STING-IRF / NF-kB immune response reporter.
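Throughout, for NF-kB reporter (SEAP) activity, viability-corrected, relative to vehicle: viability correction based on the alamar blue assay, with concentrations leaving 10% survival or less dropped.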

Take `CC12CCC(CC1)C(C)(C)O2` [Eucalyptol]: the NF-kB reporter is 0.939 with A549-Dual [1] (0.1 µM, irradiation: 8 Gy/4 fr); 1.06 in the assay on A549-Dual [1] (0.1 µM, irradiation: none); 1 in the assay on A549-Dual [1] (0.3 µM, irradiation: 8 Gy/4 fr); 0.943 in the assay on A549-Dual [1] (0.3 µM, irradiation: none); 1.02 with A549-Dual [1] (1 µM, irradiation: 8 Gy/4 fr); 0.86 with A549-Dual [1] (1 µM, irradiation: none). The NF-kB reporter in the assay with A549-Dual [1] (3 µM, irradiation: 8 Gy/4 fr) came to 1.35; in the assay on A549-Dual [1] (3 µM, irradiation: none), 0.942; in the assay with A549-Dual [1] (10 µM, irradiation: 8 Gy/4 fr), 0.817; with A549-Dual [1] (10 µM, irradiation: none), 0.879. Also, the ISRE reporter in the assay on A549-Dual [2] (0.1 µM, irradiation: 8 Gy/4 fr) came to 1.03; in the assay with A549-Dual [2] (0.1 µM, irradiation: none), 0.828; in the assay on A549-Dual [2] (0.3 µM, irradiation: 8 Gy/4 fr), 1.11; with A549-Dual [2] (0.3 µM, irradiation: none), 0.907; in the assay on A549-Dual [2] (1 µM, irradiation: 8 Gy/4 fr), 0.979; in the assay with A549-Dual [2] (1 µM, irradiation: none) it was 0.993. Further, the ISRE reporter with A549-Dual [2] (3 µM, irradiation: 8 Gy/4 fr) is 0.964; in the assay with A549-Dual [2] (3 µM, irradiation: none), 1.04; with A549-Dual [2] (10 µM, irradiation: 8 Gy/4 fr), 1; in the assay on A549-Dual [2] (10 µM, irradiation: none), 0.938.

On to `CC(=O)OCC(=O)C1(O)CCC2C3CCC4=CC(=O)C=CC4(C)C3C(O)CC21C` (stereo not given) [Prednisolone Acetate], for which the NF-kB reporter in the assay on A549-Dual [1] (0.1 µM, irradiation: 8 Gy/4 fr) was 0.854; with A549-Dual [1] (0.1 µM, irradiation: none), 1.3; with A549-Dual [1] (0.3 µM, irradiation: 8 Gy/4 fr) it was 1.07; in the assay on A549-Dual [1] (0.3 µM, irradiation: none), 1.39; in the assay on A549-Dual [1] (1 µM, irradiation: 8 Gy/4 fr) it was 1.49; in the assay with A549-Dual [1] (1 µM, irradiation: none), 0.953. The NF-kB reporter was determined as 1.65 in the assay on A549-Dual [1] (3 µM, irradiation: 8 Gy/4 fr); 0.944 in the assay with A549-Dual [1] (3 µM, irradiation: none); 0.719 with A549-Dual [1] (10 µM, irradiation: 8 Gy/4 fr); 1.13 with A549-Dual [1] (10 µM, irradiation: none). Besides, the ISRE reporter with A549-Dual [2] (0.1 µM, irradiation: 8 Gy/4 fr) stood at 0.131; in the assay with A549-Dual [2] (0.1 µM, irradiation: none) it was 0.551; with A549-Dual [2] (0.3 µM, irradiation: 8 Gy/4 fr), 0.202; in the assay on A549-Dual [2] (0.3 µM, irradiation: none) it was 0.372; with A549-Dual [2] (1 µM, irradiation: 8 Gy/4 fr), 0.0972; with A549-Dual [2] (1 µM, irradiation: none), 0.28. Further, the ISRE reporter with A549-Dual [2] (3 µM, irradiation: 8 Gy/4 fr) is 0.108; in the assay with A549-Dual [2] (3 µM, irradiation: none), 0.232; in the assay on A549-Dual [2] (10 µM, irradiation: 8 Gy/4 fr), 0.105; with A549-Dual [2] (10 µM, irradiation: none), 0.237.

In the case of `CC1CC2C3CCC4=CC(=O)C=CC4(C)C3C(=O)CC2(C)C1(O)C(=O)CO` (stereo not given) [Meprednisone], the NF-kB reporter worked out at 0.902 in the assay with A549-Dual [1] (0.1 µM, irradiation: 8 Gy/4 fr); 1.32 with A549-Dual [1] (0.1 µM, irradiation: none); 1.1 in the assay on A549-Dual [1] (0.3 µM, irradiation: 8 Gy/4 fr); 1.48 in the assay with A549-Dual [1] (0.3 µM, irradiation: none); 1.22 in the assay with A549-Dual [1] (1 µM, irradiation: 8 Gy/4 fr); 1.06 in the assay on A549-Dual [1] (1 µM, irradiation: none). In addition, the NF-kB reporter in the assay on A549-Dual [1] (3 µM, irradiation: 8 Gy/4 fr) was 1.22; in the assay with A549-Dual [1] (3 µM, irradiation: none), 1.02; in the assay on A549-Dual [1] (10 µM, irradiation: 8 Gy/4 fr), 0.844; in the assay on A549-Dual [1] (10 µM, irradiation: none), 1.04. Besides, the ISRE reporter turned out to be 0.934 with A549-Dual [2] (0.1 µM, irradiation: 8 Gy/4 fr); 0.875 with A549-Dual [2] (0.1 µM, irradiation: none); 0.778 in the assay with A549-Dual [2] (0.3 µM, irradiation: 8 Gy/4 fr); 1.05 in the assay on A549-Dual [2] (0.3 µM, irradiation: none); 0.642 in the assay with A549-Dual [2] (1 µM, irradiation: 8 Gy/4 fr); 0.819 in the assay with A549-Dual [2] (1 µM, irradiation: none). The ISRE reporter with A549-Dual [2] (3 µM, irradiation: 8 Gy/4 fr) came to 0.617; in the assay on A549-Dual [2] (3 µM, irradiation: none), 0.89; in the assay with A549-Dual [2] (10 µM, irradiation: 8 Gy/4 fr), 0.391; with A549-Dual [2] (10 µM, irradiation: none), 0.581.

`COc1cc2c(cc1Cc1cccc(Cl)c1F)c(=O)c(C(=O)O)cn2C(CO)C(C)C` (stereo not given) [Elvitegravir (GS-9137, JTK-303)]: the NF-kB reporter in the assay on A549-Dual [1] (0.1 µM, irradiation: 8 Gy/4 fr) turned out to be 1.14; with A549-Dual [1] (0.1 µM, irradiation: none) it was 1.09; in the assay with A549-Dual [1] (0.3 µM, irradiation: 8 Gy/4 fr) it was 0.933; in the assay on A549-Dual [1] (0.3 µM, irradiation: none), 1.28; in the assay on A549-Dual [1] (1 µM, irradiation: 8 Gy/4 fr), 1.2; in the assay with A549-Dual [1] (1 µM, irradiation: none), 0.979. The NF-kB reporter with A549-Dual [1] (3 µM, irradiation: 8 Gy/4 fr) amounted to 1.48; in the assay with A549-Dual [1] (3 µM, irradiation: none), 1.13; in the assay with A549-Dual [1] (10 µM, irradiation: 8 Gy/4 fr), 0.966; in the assay on A549-Dual [1] (10 µM, irradiation: none), 0.926. In addition, the ISRE reporter in the assay with A549-Dual [2] (0.1 µM, irradiation: 8 Gy/4 fr) amounted to 1.15; in the assay with A549-Dual [2] (0.1 µM, irradiation: none) it was 1.1; in the assay with A549-Dual [2] (0.3 µM, irradiation: 8 Gy/4 fr) it was 0.897; with A549-Dual [2] (0.3 µM, irradiation: none), 1.08; in the assay with A549-Dual [2] (1 µM, irradiation: 8 Gy/4 fr) it was 1.09; with A549-Dual [2] (1 µM, irradiation: none), 1.02. Also, the ISRE reporter came out at 0.901 in the assay on A549-Dual [2] (3 µM, irradiation: 8 Gy/4 fr); 1.69 in the assay on A549-Dual [2] (3 µM, irradiation: none); 0.939 in the assay on A549-Dual [2] (10 µM, irradiation: 8 Gy/4 fr); 9.03 with A549-Dual [2] (10 µM, irradiation: none).

Consider `COc1ccc(-c2ccc3cc(C(=O)O)ccc3c2)cc1C12CC3CC(CC(C3)C1)C2` [Adapalene], for which the NF-kB reporter is 1.11 in the assay with A549-Dual [1] (0.1 µM, irradiation: 8 Gy/4 fr); 1.24 in the assay on A549-Dual [1] (0.1 µM, irradiation: none); 1.22 with A549-Dual [1] (0.3 µM, irradiation: 8 Gy/4 fr); 1.35 in the assay with A549-Dual [1] (0.3 µM, irradiation: none); 1.34 in the assay with A549-Dual [1] (1 µM, irradiation: 8 Gy/4 fr); 1.26 with A549-Dual [1] (1 µM, irradiation: none). Besides, the NF-kB reporter in the assay with A549-Dual [1] (3 µM, irradiation: 8 Gy/4 fr) amounted to 1.56; in the assay with A549-Dual [1] (3 µM, irradiation: none), 1.25; in the assay on A549-Dual [1] (10 µM, irradiation: 8 Gy/4 fr), 0.755; with A549-Dual [1] (10 µM, irradiation: none), 0.856. Also, the ISRE reporter with A549-Dual [2] (0.1 µM, irradiation: 8 Gy/4 fr) was 1.14; in the assay with A549-Dual [2] (0.1 µM, irradiation: none), 1.31; in the assay on A549-Dual [2] (0.3 µM, irradiation: 8 Gy/4 fr), 1.09; in the assay with A549-Dual [2] (0.3 µM, irradiation: none), 1.09; in the assay on A549-Dual [2] (1 µM, irradiation: 8 Gy/4 fr), 0.965; in the assay with A549-Dual [2] (1 µM, irradiation: none), 1.13. Besides, the ISRE reporter in the assay on A549-Dual [2] (3 µM, irradiation: 8 Gy/4 fr) worked out at 0.979; in the assay on A549-Dual [2] (3 µM, irradiation: none), 1.23; in the assay with A549-Dual [2] (10 µM, irradiation: 8 Gy/4 fr) it was 0.484; with A549-Dual [2] (10 µM, irradiation: none), 1.81.
